Hit rate of the full screen: of about 1,500 compounds, about 100 (6.7%) were called active. Not shown: some 7% with an inconclusive outcome. The call rests on the fitted dose curve; in most records, active means well fitted inhibition curve with a large enough effect; inconclusive means small, poorly fitted or top-dose-only effect, or effect the other way; inactive means flat fitted curve, though single readings scatter. The list shows a part of the results.
Target: Runt-related transcription factor 1 (Homo sapiens) + Core-binding factor subunit beta (Homo sapiens) (UniProt Q01196+Q13951)
Experiment: qHTS Assay for Compounds Blocking the Interaction Between CBF-beta and RUNX1 for the Treatment of Acute Myeloid Leukemia: Hit Validation; further: nearly all actives have a fitted effect of over 60% in size
Details: AlphaScreen CBFb-His/RUNX1-biotin binding; series mostly up to 59.8 µM; activity, negative = inhibition: at the top concentration
Source text: NIH Chemical Genomics Center [NCGC]
NIH Molecular Libraries Probe Production centers Network [MLPCN]
Assay Submitter (PI): Paul Liu
Core Binding Factor (CBF) abnormalities are associated with 20-25% of all acute myeloid leukemias (AML), of which 5-10% are further sub classified as acute myelomonocytic leukemia with eosinophilia, also known as M4Eo in the FAB classification scheme. This subtype of leukemia is usually associated with chromosome 16 inversion (p13:q22). Chromosome 16 inversion results in formation of the fusion oncogene CBFB-MYH11, which encodes the fusion protein CBF-beta-SMMHC.
It has been hypothesized that the interference of CBF-beta and RUNX1 binding could have therapeutic implications for patients with CBF mediated leukemias. We developed a CBF-beta and RUNX1 binding assay in AlphaScreenTM format and optimized it for high throughput screening to search for inhibitors. The goal of this project is to screen MLPCN's compound collection (MLSMR) for identifying the inhibitors of the interaction between CBF-beta and RUNX1 proteins as research probes. If these probes work well in the animal models, the ultimate goal of this project is to development a new drug treatment for this disease.
This assay can not be used to assess how apparent inhibitors interfere with protein binding, and whether inhibitors specifically bind to either protein. Disruption of this protein-protein interaction, through any mechanism, is the intended target activity.
The present data set was run to confirm the activity of hits from the primary screen.
NCGC Assay Protocol Summary:
Step, Parameter, Description
(1) Reagent, 3 uL CBFb-His/RUNX1-biotin mix incubated together for 20 minutes at room temperature (30 nM each)
(2) Compound or control, 23 nL compound stock solution
(3) Incubation, 15 minutes at Room temperature
(4) Reagent, 1 uL 50 ng each of beads (Nickel beads and streptavidin beads)
(5) Incubation, 90 minutes at Room temperature
(6) Detection, Excitation=365 nm Emission=440 nm, Envision reader in AlphaScreenTM mode
Keywords: MLSMR, MLPCN, NIH Roadmap, qHTS, NCGC, Core binding factor, CBF, CBF-beta, Acute myeloid leukemia
On the % scale 0 is the no-effect control and ±100 the full control effect.

Chain of UniProt Q01196 (Q01196 whole entry, looked up): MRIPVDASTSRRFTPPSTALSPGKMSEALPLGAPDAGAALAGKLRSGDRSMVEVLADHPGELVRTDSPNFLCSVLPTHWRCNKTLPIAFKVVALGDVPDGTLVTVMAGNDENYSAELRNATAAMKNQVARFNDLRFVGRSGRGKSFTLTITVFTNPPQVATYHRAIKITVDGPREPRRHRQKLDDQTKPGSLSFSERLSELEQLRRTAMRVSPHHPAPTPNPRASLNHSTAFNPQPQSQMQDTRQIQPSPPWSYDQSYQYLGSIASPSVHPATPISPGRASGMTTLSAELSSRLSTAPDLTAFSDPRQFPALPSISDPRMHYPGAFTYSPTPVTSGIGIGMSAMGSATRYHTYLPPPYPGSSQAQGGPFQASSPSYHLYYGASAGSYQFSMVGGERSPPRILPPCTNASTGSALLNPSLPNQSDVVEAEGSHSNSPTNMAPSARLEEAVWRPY
Chain of UniProt Q01196 (Q13951 whole entry, looked up): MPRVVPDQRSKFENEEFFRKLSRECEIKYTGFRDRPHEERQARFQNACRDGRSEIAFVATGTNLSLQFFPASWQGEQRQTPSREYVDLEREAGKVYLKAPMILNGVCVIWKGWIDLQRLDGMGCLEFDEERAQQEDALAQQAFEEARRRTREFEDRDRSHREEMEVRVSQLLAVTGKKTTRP

activity, negative = inhibition, inactive:
Cc1ccc(S(=O)(=O)N(C)C)cc1[N+](=O)[O-] -1.88%
O=S(=O)(c1ccc(C(F)(F)F)cc1)N1CCCN(c2ccc(C(F)(F)F)cn2)CC1 -5.62%
CC(=O)c1nnn(-c2ccc(F)cc2F)c1C 5.31%
CC(=O)Nc1ccc(S(=O)(=O)N2CCN(CC(=O)N3CCOCC3)CC2)cc1 4.41%
Nc1ccc2c(c1)nnn2-c1ccccc1 2.2%
Cc1cc(C)cc(NCCC#N)c1 6.26%
CCCc1cc(=O)c2ccc(OC/C(C)=N/O)cc2o1 0.225%
Cc1nc([N+](=O)[O-])cn1CC(O)c1ccc(Cl)cc1 (centres undefined) -1.69%
CC(C)(O)P(=O)(O)CCc1ccccc1 -8.04%
Cc1cc(NS(=O)(=O)c2ccc(NC(=O)CCSc3ccc(F)cc3)cc2)nc(C)n1 241%
CN1CCN(C(=O)C23CC4CC(C)(CC(C)(C4)C2)C3)CC1 -3.52%
CCC(=O)Nc1cccc(-c2cn3cccc(C)c3n2)c1 -4.22%
O=[N+]([O-])c1cc(Cl)cc2c1nc(NCCO)c1ccccc12 -21.2%
Cc1nc2c(c(=O)c3ccccc3n2C)c(=O)n1-c1ccccc1 -3.86%
CCOC(=O)C1=C(N)Oc2c(oc(CO)cc2=O)C1c1ccc(Cl)cc1 (centres undefined) -3.45%
COC(=O)c1scc(C)c1NC(=O)/C=C/C(=O)O 3.12%
COc1cccc(/C=N/NC(=O)c2cnccn2)c1OC -3.28%
CC(=O)c1sc(-c2ccccc2)cc1NS(=O)(=O)c1ccc(C)cc1 -6.62%
Cc1onc(-c2c(Cl)cccc2Cl)c1C(=O)c1ccc(F)cc1 -2.65%
O=C(CS(=O)(=O)c1ccc(C(F)(F)F)cn1)NNC(=O)c1ccccc1 0.626%
Cc1ccc(Cn2nc(C)cc2C(=O)Nc2ccc(Cl)cc2)cc1 -3.08%
COc1cccc(/C=N/NC(=O)Cn2nc([N+](=O)[O-])cc2C)c1 10.5%
COc1cc(N=Nc2ccccc2C(=O)O)ccc1O -12.8%
COc1cccc(C2Oc3ccccc3C3CC(c4cccs4)=NN32)c1 (centres undefined) 4.22%
COc1ccc(N/C=C/C(=O)c2ccc(OC)c(OC)c2)cc1 -2.67%
COc1cccc(/C=N/NC(=O)Cn2cnc3c2c(=O)n(C)c(=O)n3C)c1 4.69%
O=C(N/N=C/C(Br)=C/c1ccccc1)C(O)c1ccccc1 (centres undefined) -15.9%
CC1SCC(NC(=O)c2ccc(Cl)cc2)CS1 (centres undefined) 1.16%
O=[N+]([O-])c1cccnc1Oc1ccc(F)cc1 -0.561%
Cc1cc(=O)[nH]c(SCC(=O)NN(c2ccccc2)c2ccccc2)n1 -10.9%
CCN(CC)C(=O)CSc1nnc2nnc3cc(C)ccc3n12 -0.465%
O=C(O)c1ccccc1C(=O)Nc1ccccc1[N+](=O)[O-] 7%
COc1ccccc1N1C(=O)C=C(Sc2nc(C)cc(C)n2)C1=O -5.84%
COc1ccc(C(=O)CN2C(=O)c3ccccc3S2(=O)=O)cc1 -0.754%
COc1cc(/C=N/NC(=O)Cn2cnc3c2c(=O)n(C)c(=O)n3C)ccc1O -2.57%
COc1ccc(C2=NOC(CNC(=S)N3CCOCC3)C2)cc1 (centres undefined) -1.41%
O=C(Nc1ccc(Cl)cc1)NC1CCCCNC1=O (centres undefined) -3.89%
Oc1ccc(-c2nc3ccccc3s2)c(O)c1 26.7%
Cc1ccsc1/C=N/N1CCN(c2ccccn2)CC1 -19.6%
Cc1c(C(=O)/C=C/N(C)C)nnn1-c1ccc(Cl)cc1Cl -14.6%
CN(C)C(=O)CSc1nnc(NC(=O)CCc2ccccc2)s1 5.1%
COc1ccc(/C=C/C(=O)Oc2cc(O)cc(O)c2)cc1 4.56%
COc1ccc(S(=O)(=O)N2CCc3ccccc32)cc1C(=O)Nc1cccnc1 0.0512%
O=C(O)c1ccccc1Sc1ccccc1S(=O)(=O)NC1CCCCC1 -2.05%
N#CC1CC(c2ccccc2)Nc2cc(Cl)ccc2N1 (centres undefined) 26.8%
COc1ccc(/C=N/NC(=O)c2ccc3nc[nH]c3c2)cc1OC -0.42%
CN(C)c1cc(-c2ccc([N+](=O)[O-])cc2)oc(=O)c1Cl -16.8%
COc1ccc(C(=O)Nc2cccnc2Sc2ccc(Cl)cc2)cc1 6.71%
CC(C)Cn1c(=O)c2c(nc3n2CCS3)n(C)c1=O -0.346%
COc1ccccc1C(=O)Nc1ccc2c(c1)nc(CCNC(=O)c1ccccc1)n2C -2.44%
CCCCc1c(C)nc2cc(-c3ccco3)[nH]n2c1=O -6.15%
CCCCc1cc(=O)oc2c(C)c(OCc3nn[nH]n3)ccc12 -4.17%
CCCCNc1nc2sc3c(c2c(=O)n1-c1cccc(Cl)c1)CCN(C)C3 -4.32%
CC(/C=N/n1c(COc2ccccc2)n[nH]c1=S)=C\c1ccco1 -17.5%
COc1cc(/C=N/n2nnnc2N)cc(OC)c1OC 5.03%
CCOc1ccc2nc(N/C(N)=N/C(=S)Nc3cccc(OC)c3)nc(C)c2c1 -6.43%
CCOC(=O)C(=CNNc1c(C)csc1C(=O)OC)C(=O)OCC -2.1%
CC(C)NC(=O)Nc1cccc(Cl)c1 1.29%
Cc1nc(-c2cc(C#N)c(Sc3cccc(C(F)(F)F)c3)nc2C)cs1 2.16%
